Measured values taken from PubChem BioAssay (NCI).
Values joined by “and” are separate entries in the source; they are usually repeats but may differ in a detail not shown here. Equal entries are not always repeated.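 Cultured in 96-well plates, cells were exposed to test compound for 48 hours across five concentrations. Here, GI50 denotes the concentration required for 50% inhibition of growth. TGI marks complete inhibition of growth.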 Peptide text beside a SMILES is read from it. * marks the point of attachment. Palmitoyl = CCCCCCCCCCCCCCCC(=O)*

tested on: NCI-H322M lung; assay: DTP human tumour cell line panel, 48 h

First: C=C(C)C(C1C=C(CCC(C=O)=C(C)C)C(=O)O1)C1(OC)C=C(C)C(=O)O1 (stereo unspecified)
Second: COC(=O)/C=C/c1cc(OC(C)=O)c2c(c1)C(C(=O)OC)C(c1ccc(OC(C)=O)c(OC(C)=O)c1)O2 (stereo unspecified)
The GI50 of the first is higher: > 100 µM for the first, 7.07 µM for the second.

First: O=c1cccc(C#CC#C[C@@H]2O[C@H]2CO)o1
Second: NC(=S)N/N=C/c1ncccc1O
The GI50 of the first is 2.8-fold lower: 1.71 µM for the first, 4.87 µM for the second.

Compared with `COc1ccc(-c2cc(=O)oc3c4c(ccc23)OCN(Cc2ccc(F)cc2)C4)cc1`, `COc1ccc(CNc2c3ccccc3nc3ccccc23)cc1F` is 6.4-fold lower in GI50: 20.5 µM for the first, 3.22 µM for the second.

`CCOC(=O)Nc1c(C)nc2ccccn12` and `COc1ccc(Cl)cc1NC(=O)c1ccc(NC2=C(Cl)C(=O)N(Cc3ccccc3)C2=O)cc1` cannot be ordered by GI50: > 100 µM for the first, > 100 µM for the second.

Compared with `CCCCCCCCCCCCCCCC(=O)N1CCCC1C(=O)NCC(=O)NC(Cc1ccccc1)C(=O)N1CCCC1C(=O)NC(CO)C(=O)NC(Cc1ccc(O)cc1)C(=O)NC(CCCCN)C(=O)NC(CC(C)C)C(=O)NC(CCCN=C(N)N)C(=O)N1CCCC1C(=O)NCC(N)=O` (stereo unspecified) (Palmitoyl-PGFPSYKLRPG-NH2; configuration not given here), `C=C(CN(C)Cc1ccccc1)c1ccc(NC(=O)c2ccc(C(=C)CN(C)Cc3ccccc3)cc2)cc1` is higher in GI50: 2.27 µM for the first, > 100 µM for the second.

First: C=C(C)[C@@H]1CC[C@]2(CN)CC[C@]3(C)[C@H](CC[C@@H]4[C@@]5(C)CCCNC(C)(C)[C@@H]5CC[C@]43C)[C@@H]12
Second: O=c1[nH]c(O)c(C=Nc2ccc(-c3nc4ccccc4o3)cc2)c(=O)[nH]1
The GI50 of the first is 36-fold lower: 1.61 µM for the first, 57.2 µM for the second.

First: O=c1[nH]c(-c2cccc(F)c2)cc2cc(F)ccc12
Second: COc1cccc2c1O/C(=C\c1ccc([N+](=O)[O-])s1)C2=O
The GI50 of the first is lower: 4.35 µM for the first, > 100 µM for the second.

For `COc1nc(=O)n(C2C=CC(=O)O2)cc1F` (stereo unspecified), the GI50 was 16.7 µM.

First: C=C(C)C(C1C=C(CCC(C=O)=C(C)C)C(=O)O1)C1(OC)C=C(C)C(=O)O1 (stereo unspecified)
Second: COC(=O)/C=C/c1cc(OC(C)=O)c2c(c1)C(C(=O)OC)C(c1ccc(OC(C)=O)c(OC(C)=O)c1)O2 (stereo unspecified)
The TGI of the first is higher: > 100 µM for the first, 51.1 µM for the second.

`CC(C)(C)c1ccc2c(c1)C#Cc1cc3c(cc1OCCCO2)C#Cc1cc(C(C)(C)C)ccc1OCCCO3` and `CC12c3c4ccc(C=O)c3Oc3ccc(C=O)c(c31)Oc1ccc(C=O)c(c12)O4` cannot be ordered by TGI: > 100 µM for the first, > 25 µM for the second.

First: O=c1cccc(C#CC#C[C@@H]2O[C@H]2CO)o1
Second: Nc1nc(Cl)nc2c1ncn2C1CC(O)C(CO)O1 (stereo unspecified)
The TGI of the first is lower: 6.74 µM for the first, > 100 µM for the second.

`Nc1ncc2c(n1)-c1ccccc1OC2N1CCCC1` (stereo unspecified) and `CN1CCN(Cc2cc3c(nn2)-c2ccccc2C3=O)CC1` cannot be ordered by TGI: > 100 µM for the first, > 100 µM for the second.

First: O=[N+]([O-])c1cccnc1N=Nc1c(O)[nH]c2ccccc12
Second: O=c1[nH]c(O)c(C=Nc2ccc(-c3nc4ccccc4o3)cc2)c(=O)[nH]1
The TGI of the first is lower: 34 µM for the first, > 100 µM for the second.

`CCOC(=O)/C=C1/C(CCCOCc2ccccc2)C2CCCC23CC2(CCN13)OCCO2` (stereo unspecified) and `CC(C(=O)COCc1ccccc1)P1(=O)OC(C)(C)CN1C(C)(C)C` (stereo unspecified) cannot be ordered by TGI: > 100 µM for the first, > 100 µM for the second.

`COc1cc2c3c(n(C)c(=O)c2cc1OC)-c1cc2c(cc1C3=O)OCO2` and `Cc1ccc2c(c1)c1ccc3c(c1n2C)C(=O)C=CC3=O` cannot be ordered by TGI: > 100 µM for the first, > 10 µM for the second.

Going from `COc1ccc(-c2cc(=O)oc3c4c(ccc23)OCN(Cc2ccc(F)cc2)C4)cc1` to `COc1ccc(CNc2c3ccccc3nc3ccccc23)cc1F`, the TGI falls from 57 µM to 12 µM (4.8-fold).

`OC(C#CCN1CCCC1)(c1ccccc1)c1ccccc1Cl` (stereo unspecified) and `O=C1N(Cc2ccccc2)C2CSCC2N1Cc1ccccc1` (stereo unspecified) cannot be ordered by TGI: > 100 µM for the first, > 100 µM for the second.

`COc1cc(Nc2ccc3c(c2)CCC3)nc(OC)n1` and `Cc1cc(C)nc(NC(=S)Nc2ccc([N+](=O)[O-])cc2)c1` cannot be ordered by TGI: > 100 µM for the first, > 100 µM for the second.

`O[C@H]1[C@H](O)[C@@H](O)CN2CC[C@H](O)[C@H]12` and `C[C@@H]1CC[C@H]2[C@H]1[C@H]1[C@@H](CC[C@]2(C)N=C=S)C1(C)C` cannot be ordered by TGI: > 100 µM for the first, > 100 µM for the second.

`C/C(=N\NC(N)=O)c1sc(-c2nc(C)c(/C(C)=N/NC(N)=O)s2)nc1C` and `CC(C)(CO)CNc1nc(N)nc(Cl)c1/C=N/O` cannot be ordered by TGI: > 100 µM for the first, > 100 µM for the second.

`COc1c2occc2c(N)c2ccc(=O)oc12` and `COc1cccc2c1O/C(=C\c1ccc([N+](=O)[O-])s1)C2=O` cannot be ordered by TGI: > 100 µM for the first, > 100 µM for the second.

`CCOC(=O)Nc1c(C)nc2ccccn12` and `CCc1n[nH]c(=O)n1-c1ccc2ccccc2c1` cannot be ordered by TGI: > 100 µM for the first, > 100 µM for the second.

`CC12c3ccccc3C(OC=O)(c3ccccc31)C1(C)c3ccccc3C2(OC=O)c2ccccc21` and `COc1cc(C[P+](c2ccccc2)(c2ccccc2)c2ccccc2)cc(OC)c1OC` cannot be ordered by TGI: > 100 µM for the first, > 100 µM for the second.

Compared with `CCCCCCCCCCCCCCCC(=O)N1CCCC1C(=O)NCC(=O)NC(Cc1ccccc1)C(=O)N1CCCC1C(=O)NC(CO)C(=O)NC(Cc1ccc(O)cc1)C(=O)NC(CCCCN)C(=O)NC(CC(C)C)C(=O)NC(CCCN=C(N)N)C(=O)N1CCCC1C(=O)NCC(N)=O` (stereo unspecified) (Palmitoyl-PGFPSYKLRPG-NH2; configuration not given here), `O=C1c2cccc3cccc(c23)C(=O)N1CCCNCCCCNCCCNCCCN1C(=O)c2cccc3cccc(c23)C1=O` is 13-fold lower in TGI: 20.4 µM for the first, 1.56 µM for the second.

`COc1cc(C=O)ccc1O` and `COc1ccc(CC(N)=O)cc1OC` cannot be ordered by TGI: > 100 µM for the first, > 1250 µM for the second.

Going from `COc1cc2c(cc1OCCCN1C(=O)c3cccc4cccc(c34)C1=O)N=C[C@@H]1CCCN1C2=O` to `O=C1c2cccc3cccc(c23)C(=O)N1CCN(CCO)CCO`, the TGI falls from > 100 µM to 74.3 µM.

First: C=C(C)[C@@H]1CC[C@]2(CN)CC[C@]3(C)[C@H](CC[C@@H]4[C@@]5(C)CCCNC(C)(C)[C@@H]5CC[C@]43C)[C@@H]12
Second: CCOC(=O)CNC(=O)NC12CC3CC(CC(C3)C1)C2
The TGI of the first is lower: 3.15 µM for the first, > 550 µM for the second.

Compared with `O=C1C=C(c2c(O)ccc3ccccc23)c2cc(O)ccc2C1=O`, `O=C1C=C(Nc2ccc(Cl)cc2C(=O)c2ccccc2)c2ccccc2C1=O` is higher in TGI: 33.1 µM for the first, > 100 µM for the second.

`Cc1c2c(c(C)n1-c1ccccc1)C(=O)N(CCN1CCN(c3cccc(C(F)(F)F)c3)CC1)C2=O` and `Cc1cc(C)nc(NS(=O)(=O)c2ccc(Nc3c4ccccc4nc4c(C(=O)N5CCN(CCO)CC5)cccc34)cc2)n1` cannot be ordered by TGI: > 100 µM for the first, > 100 µM for the second.

Compared with `c1ccc(C(C(=Nc2ccc(Cc3ccc(N=C(C(c4ccccc4)c4ccccc4)N4CC4)cc3)cc2)N2CC2)c2ccccc2)cc1`, `C=C(CN(C)Cc1ccccc1)c1ccc(NC(=O)c2ccc(C(=C)CN(C)Cc3ccccc3)cc2)cc1` is higher in TGI: 47.5 µM for the first, > 100 µM for the second.

`Cc1cc(OP2(=O)NCc3ncccc3O2)ccc1Cl` (stereo unspecified) and `COc1ccc2oc(=N)c(C(=O)Nc3ccccc3)cc2c1` cannot be ordered by TGI: > 100 µM for the first, > 100 µM for the second.

`COc1ccc(Cl)cc1NC(=O)c1ccc(NC2=C(Cl)C(=O)N(Cc3ccccc3)C2=O)cc1` and `Nc1c(S(=O)(=O)c2ccc(Cl)cc2)c2nc3ccccc3nc2n2ccnc12` cannot be ordered by TGI: > 100 µM for the first, > 100 µM for the second.

First: CCCN(CCC)c1c([N+](=O)[O-])cc(C(=O)N(CC)CC)cc1[N+](=O)[O-]
Second: CCCCCCCCSC1=C(Cl)C(=O)C(OC)=C(OC)C1=O
The TGI of the first is higher: > 100 µM for the first, 45.8 µM for the second.

`Cc1nc2ccccc2c(-n2cccn2)c1CCn1cccn1` and `Cn1ncc2c(NCc3ccccc3)ncnc21` cannot be ordered by TGI: > 100 µM for the first, > 100 µM for the second.

First: O=c1[nH]c(-c2cccc(F)c2)cc2cc(F)ccc12
Second: CCOC(=O)C(Br)=C1OC(=O)c2ccccc2-c2ccccc21 (mixture of isomers)
The TGI of the first is higher: > 100 µM for the first, 50.3 µM for the second.

`C=C(C)CNCCN` and `OCCCc1ccc2c(c1)[C@H](CO)[C@@H](c1ccc(O)cc1)O2` cannot be ordered by TGI: > 100 µM for the first, > 100 µM for the second.

First: CC(C)N1CCN(c2ccc(OCC3COC(Cn4cncn4)(c4ccc(Cl)cc4Cl)O3)cc2)CC1 (stereo unspecified)
Second: O=c1onc2n1-c1cc(Cl)ccc1C(=S)N1CSCC21 (stereo unspecified)
The TGI of the first is lower: 28 µM for the first, > 100 µM for the second.

Compared with `COc1nc(=O)n(C2C=CC(=O)O2)cc1F` (stereo unspecified), `CNc1nncc2[nH]cnc12` is higher in TGI: 60 µM for the first, > 100 µM for the second.

In the case of `COc1ccc2c(=O)oc3c(OC)cc(CCN(C)C)c4c(=O)oc1c2c34`, the TGI was 30.8 µM and 17.2 µM.
